In patent US20260027209A1 (LEGEND BIOTECH IRELAND, published 2026):

T1: human Claudin-6 (human, UniProt P56747 1-220)
T1 construct: whole, on cells; also called CLDN6; huCLDN6
T1 sequence (looked up): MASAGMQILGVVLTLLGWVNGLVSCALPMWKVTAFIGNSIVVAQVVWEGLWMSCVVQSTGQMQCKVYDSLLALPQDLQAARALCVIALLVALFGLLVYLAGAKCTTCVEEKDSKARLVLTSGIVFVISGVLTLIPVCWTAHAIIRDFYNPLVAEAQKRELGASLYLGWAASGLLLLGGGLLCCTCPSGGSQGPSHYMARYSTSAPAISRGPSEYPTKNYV

T2: human Claudin-3 (human, UniProt O15551 1-220)
T2 construct: whole, on cells; On ES-2.huCLDN3.Luc cells; also called CLDN3; huCLDN3
T2 sequence (looked up): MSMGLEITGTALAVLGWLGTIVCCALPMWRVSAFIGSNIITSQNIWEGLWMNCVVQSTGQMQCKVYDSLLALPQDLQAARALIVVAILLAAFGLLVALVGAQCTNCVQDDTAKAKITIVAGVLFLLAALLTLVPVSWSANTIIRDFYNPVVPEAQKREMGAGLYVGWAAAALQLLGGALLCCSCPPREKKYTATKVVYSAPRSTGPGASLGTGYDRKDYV

T3: human Claudin-4 (human, UniProt O14493 1-209)
T3 construct: whole, on cells; On ES-2.huCLDN4.Luc cells; also called CLDN4; huCLDN4
T3 sequence (looked up): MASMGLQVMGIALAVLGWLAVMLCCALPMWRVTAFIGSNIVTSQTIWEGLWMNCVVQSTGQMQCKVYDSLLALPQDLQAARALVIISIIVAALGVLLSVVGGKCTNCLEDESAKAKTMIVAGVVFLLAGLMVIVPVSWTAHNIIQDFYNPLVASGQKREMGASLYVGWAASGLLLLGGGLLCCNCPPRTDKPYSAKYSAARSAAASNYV

T4: human Claudin-9 (human, UniProt O95484 1-217)
T4 construct: whole, on cells; On ES-2.huCLDN9.Luc cells; also called CLDN9; huCLDN9
T4 sequence (looked up): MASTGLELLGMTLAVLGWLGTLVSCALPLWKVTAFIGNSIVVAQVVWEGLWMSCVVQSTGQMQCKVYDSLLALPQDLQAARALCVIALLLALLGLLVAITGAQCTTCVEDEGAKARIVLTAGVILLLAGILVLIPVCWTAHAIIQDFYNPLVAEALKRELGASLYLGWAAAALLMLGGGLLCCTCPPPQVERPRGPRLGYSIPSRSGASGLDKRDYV


Legend:
human Claudin-6 [1] = biological target: T1, human Claudin-6; assay: flow cytometry on OV90 cells (CLDN6-positive tumor cell line)
Description: (§1) The anti-CLDN6 antibodies were tested for binding capacities to ES-2. huCLDN3. Luc cell lines, ES-2. huCLDN4. Luc cell lines, ES-2. huCLDN6. Luc cell lines, and ES-2. huCLDN9. Luc cell lines by cell based flow cytometry. Briefly, 5×10⁵ ES-2. huCLDN. Luc cell lines in DPBS (pH7.2) were incubated with serially diluted anti-CLDN6 antibodies at 4° C. for 45 min, followed by wash-centrifugation-supernatant depletion cell washing cycles for 3 times with DPBS. After wash, cell pellets were re-suspended in DPBS and incubated with the anti-human Fc antibody labeled with PE (Biolegend, Cat. No. 409304) at 4° C. for 30 min in dark. The cells were then subject to wash-centrifugation-supernatant depletion cell washing cycles for 3 times with DPBS. The cells were then run on Attune NXT flow cytometry (Thermo Fisher) to detect antibody-binding level. Data were analyzed in GraphPad prism 9 software based on the geometric mean of fluorescence intensity for the cell population in each well. FACS means fluorescence-activated cell sorting.
(§2) OV90 (ATCC #CRL-11732) is a typical CLDN6-positive tumor cell line. They were harvested and re-suspended in 1% PBS-BSA buffer on 96-well plates. The following experimental methods were the same as that in Example 6.3.1.

human Claudin-6 [2] = biological target: T1, human Claudin-6; assay: flow cytometry on ES-2.huCLDN6.Luc cells, PE anti-human Fc detection
Description: as §1

human Claudin-3 [3] = biological target: T2, human Claudin-3; assay: flow cytometry on ES-2.huCLDN3.Luc cells; table legend: n.s. indicates no significant binding
Description: as §1

human Claudin-4 [4] = biological target: T3, human Claudin-4; assay: flow cytometry on ES-2.huCLDN4.Luc cells; table legend: n.s. indicates no significant binding
Description: as §1

human Claudin-9 [5] = biological target: T4, human Claudin-9; assay: flow cytometry on ES-2.huCLDN9.Luc cells; table legend: n.s. indicates no significant binding
Description: as §1

human Claudin-6 [6] = biological target: T1, human Claudin-6; assay: flow cytometry on OV90 cells (CLDN6-positive tumor cell line); remark: listed apart in the source
Description: as §1, §2
Humanized anti-CLDN6 chimeric antibodies were tested for binding capacities to OV90 cells by cell based flow cytometry as method in Example 6.3.2.

human Claudin-6 [7] = biological target: T1, human Claudin-6; assay: flow cytometry on ES-2.huCLDN6.Luc cells, PE anti-human Fc detection; remark: listed apart in the source
Description: as §1
(§3) Humanized anti-CLDN6 chimeric antibodies were tested for binding capacities to ES-2. huCLDN3. Luc cell lines, ES-2. huCLDN4. Luc cell lines, ES-2. huCLDN6. Luc cell lines, and ES-2. huCLDN9. Luc cell lines by cell based flow cytometry as method in Example 6.3.1.

human Claudin-3 [8] = biological target: T2, human Claudin-3; assay: flow cytometry on ES-2.huCLDN3.Luc cells; table legend: n.s. indicates no significant binding; remark: listed apart in the source
Description: as §1, §3

human Claudin-4 [9] = biological target: T3, human Claudin-4; assay: flow cytometry on ES-2.huCLDN4.Luc cells; table legend: n.s. indicates no significant binding; remark: listed apart in the source
Description: as §1, §3

human Claudin-9 [10] = biological target: T4, human Claudin-9; assay: flow cytometry on ES-2.huCLDN9.Luc cells; table legend: n.s. indicates no significant binding; remark: listed apart in the source
Description: as §1, §3

Binder	EC50 (human Claudin-6 [1]) [nM]	EC50 (human Claudin-6 [2]) [nM]	binding result (human Claudin-3 [3])	binding result (human Claudin-4 [4])	binding result (human Claudin-9 [5])	EC50 (human Claudin-6 [6]) [nM]	EC50 (human Claudin-6 [7]) [nM]	binding result (human Claudin-3 [8])	binding result (human Claudin-4 [9])	binding result (human Claudin-9 [10])
77LICNB01-hIgG1Fc (Fc fusion, expressed in HEK293F cells, Protein A purified; also called VHH-hIgG1Fc chimeric antibody; chimeric antibody) QVRLVESGGGSVQAGGSLRLSCAASGDRASRALMAWFRQAPGKEREGVAVIWTGNGLTYYANSVKGRFAISQDNAKNTVYLQMNSLKPEDTAMYYCAAAWPFGGDWSVPARYNAWGQGTQVTVSS[human IgG1 Fc omitted here]	7.58	5.96	no binding	no binding	no binding	–	–	–	–	–
77LICNB03-hIgG1Fc (Fc fusion, also called VHH-hIgG1Fc chimeric antibody; chimeric antibody) EVQLVESGGGSVQAGGSLRLSCAASGDRNSRALMAWFRQAPGKEREGVAVIWTGNGLTYYANSVKGRFTISQDNAKNTVYLQMNSLKPEDTAMYYCAAAWPFGGDWSVPARYNAWGQGTQVTVSS[human IgG1 Fc omitted here]	14.8	11	no binding	no binding	no binding	–	–	–	–	–
77LICNB02H2-hIgG1Fc (Fc fusion, also called humanized chimeric antibody; humanized VHH-hIgG1Fc chimeric antibody) EVRLVESGGGLVQPGGSLRLSCAASGPTVSMAWFRQAPGKLREGVAQIQAGGGRIYYADPVKGRFTISQDNSKNTLYLQMNSLRAEDTAVYYCAAQLRWDVWPIAWSLYNYWGQGTLVTVSS[human IgG1 Fc omitted here]	–	–	–	–	–	6.98	7	no binding	no binding	no binding
77LICNB02-hIgG1Fc (Fc fusion, also called VHH-hIgG1Fc chimeric antibody; chimeric antibody) QVRLVESGGGSVQAGGSLRLSCVASGPTVSMAWFRQAPGKLREGVAQIQAGGGRIYYADPVKGRFTISQDNARNTLYLQMNSLKPEDTAMYYCAAQLRWDVWPIAWSLYNYWGQGTQVTVSS[human IgG1 Fc omitted here]	3.38	3.77	no binding	no binding	no binding	–	–	–	–	–
77LICNB02H1-hIgG1Fc (Fc fusion, also called humanized chimeric antibody; humanized VHH-hIgG1Fc chimeric antibody) EVQLVESGGGLVQPGGSLRLSCAASGPTVSMAWFRQAPGKLREGVAQIQAGGGRIYYADPVKGRFTISRDNSKNTLYLQMNSLRAEDTAVYYCAAQLRWDVWPIAWSLYNYWGQGTLVTVSS[human IgG1 Fc omitted here]	–	–	–	–	–	7.05	7.02	no binding	no binding	no binding

Read-outs that look alike come from different tables or passages of the source.
